# Measurements taken from PMC4336329 (PLoS ONE, 2015).
# Screen size: about 310,000 compounds; about 2,200 (0.71%) showed an effect of 50% or more. The effect is printed as a negative number. The list shows a part of the results.
# Biological target: human ether-à-go-go-related gene (hERG) potassium channel (human, UniProt Q12809)
# Assay: primary screen, population patch clamp on CHO cells stably expressing hERG
# human ether-à-go-go-related gene (hERG) potassium channel, sequence (Q12809 whole entry, looked up): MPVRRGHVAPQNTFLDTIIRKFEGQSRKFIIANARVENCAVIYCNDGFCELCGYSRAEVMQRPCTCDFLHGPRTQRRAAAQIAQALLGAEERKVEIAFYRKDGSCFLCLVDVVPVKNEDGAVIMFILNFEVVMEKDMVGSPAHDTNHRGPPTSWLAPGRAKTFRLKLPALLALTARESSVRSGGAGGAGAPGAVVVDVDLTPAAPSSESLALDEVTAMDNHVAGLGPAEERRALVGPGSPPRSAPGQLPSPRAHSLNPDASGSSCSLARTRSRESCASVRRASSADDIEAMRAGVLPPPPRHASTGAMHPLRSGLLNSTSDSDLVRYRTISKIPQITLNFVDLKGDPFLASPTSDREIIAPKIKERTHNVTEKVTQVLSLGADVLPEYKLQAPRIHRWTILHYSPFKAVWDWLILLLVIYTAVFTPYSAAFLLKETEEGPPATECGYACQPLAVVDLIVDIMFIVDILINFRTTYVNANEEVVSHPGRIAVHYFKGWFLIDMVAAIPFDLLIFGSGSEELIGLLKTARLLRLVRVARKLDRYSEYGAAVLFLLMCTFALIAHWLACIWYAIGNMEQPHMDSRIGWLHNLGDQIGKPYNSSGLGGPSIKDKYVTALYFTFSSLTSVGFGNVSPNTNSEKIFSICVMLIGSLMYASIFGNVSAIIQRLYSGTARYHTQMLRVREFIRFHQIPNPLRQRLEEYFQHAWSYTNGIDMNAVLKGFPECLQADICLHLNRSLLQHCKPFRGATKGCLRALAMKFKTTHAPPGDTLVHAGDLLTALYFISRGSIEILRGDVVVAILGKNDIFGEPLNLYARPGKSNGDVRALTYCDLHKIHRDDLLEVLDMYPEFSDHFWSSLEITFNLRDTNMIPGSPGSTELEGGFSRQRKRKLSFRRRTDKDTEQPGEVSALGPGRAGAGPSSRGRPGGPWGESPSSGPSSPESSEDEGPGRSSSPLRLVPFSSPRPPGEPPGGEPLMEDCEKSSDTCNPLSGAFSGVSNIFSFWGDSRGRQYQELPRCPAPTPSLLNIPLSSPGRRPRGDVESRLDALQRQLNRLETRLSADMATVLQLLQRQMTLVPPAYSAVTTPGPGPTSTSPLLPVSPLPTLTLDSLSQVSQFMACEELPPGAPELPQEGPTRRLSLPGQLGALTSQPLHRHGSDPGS
row,Structure (SMILES),"hERG current change (%, negative = inhibition) at 1uM"
1,O=C1C(=O)N(CCCn2ccnc2)C(c2ccc(Br)cc2)/C1=C(\O)c1ccc2c(c1)OCCO2 (centres unmarked),16.4%
2,COc1cc(OC)c(OC)cc1/C=N/NC(=O)CCc1c(C)n[nH]c1C,9.23%
3,CC(C)N(Cc1ccc(F)cc1)C(=O)c1cc2ccccc2oc1=O,14%
4,O=C(CN1CCC(O)(c2ccc3c(c2)OCO3)CC1)N1CCOCC1,14.5%
5,COc1ccccc1C(=O)N/C(=C\c1cn(S(=O)(=O)N(C)C)c2ccccc12)C(=O)NCCN1CCOCC1,12.8%
6,CCCC(=O)NC(=S)Nc1ccccc1N1CCOCC1,11.1%
7,O=C(NCc1ccccn1)c1ccc(OC2CCN(Cc3ccc(Cl)s3)CC2)cc1,7.77%
8,COc1ccc(Cl)cc1CN1CCN(c2nc(C)cc(C)c2C#N)CC1,5.78%
9,COC(=O)C1=C(C)NC(=O)/C1=C\c1cc(C)n(-c2ccccc2C)c1C,11.8%
10,CCOC(=O)N1CCN(S(=O)(=O)c2cccc3cccnc23)CC1,5.5%
11,O=C(CCc1ccccc1F)N1CCN(c2ccccc2)CC1,18.3%
12,O=C(NCCOc1ccccc1)C1CCC(=O)N(CCc2ccccn2)C1 (centres unmarked),9.49%
13,Oc1ccc(-c2csc(-c3cccnc3)n2)cc1O,12.7%
14,Cc1ccccc1CN1CCN(S(=O)(=O)c2ccc(Cl)s2)CC1,6.38%
15,Cn1c(SCC(=O)Nc2ccccc2F)nnc1-c1cccnc1,-0.959%
16,OC(C#CCN1CCOCC1)(c1ccccc1)C1CCCCC1 (centres unmarked),10.3%
17,Cc1c(Cl)cccc1NC(=O)NCc1ccccn1,2.71%
18,COc1ccccc1-c1cc(C(=O)NCc2ccc(Cl)cc2)no1,6.11%
19,COc1cc([N+](=O)[O-])cc(/C=N/NC(=O)CSc2nnc(-c3ccccc3)n2C)c1O,5.04%

row,Structure (SMILES),"hERG current change (%, negative = inhibition) at 1uM"
1,COc1ccc(CNC(=O)COc2ccc(S(=O)(=O)N3CCOCC3)cc2C)cc1,1.02%
2,C/C(=N/NC(=O)CNC(=O)/C=C/c1ccco1)c1ccc(Cl)cc1,6.5%
3,CC1(C)C[C@@H]2C[C@@](C)(CN2C(=O)c2cc(COc3cccc(C(F)(F)F)c3)on2)C1,11.9%
4,CC(C)c1ccc(NC(=O)C2CCCN(S(=O)(=O)c3ccc4c(c3)C(C)(C)C(=O)N4C)C2)cc1 (centres unmarked),7.73%
5,COc1cc(OC)c(NC(C)C(=O)NCc2ccccc2)cc1Cl (centres unmarked),14.3%
6,CCN(CC(=O)Nc1c(F)cccc1F)C(=O)Cn1c(=O)cnc2ccccc21,11%
7,O=C(COc1ccccc1)OCC(=O)c1ccc(O)cc1O,15.1%
8,CC1(C2CC2)NC(=O)N(CC(=O)N2CCN(S(=O)(=O)c3ccc(F)c(F)c3)CC2)C1=O (centres unmarked),3.97%
9,Cc1cc(C(F)(F)F)c(C#N)c(SCC(=O)NC(C)(C)C)n1,10.5%
10,Nc1ccc(C#Cc2ccc3c(=O)c4ccccc4oc3c2)cc1,15.7%
11,COc1ccc(N2CCN(Cc3cc(=O)oc4ccc5ccccc5c34)CC2)cc1,9.27%
12,Cc1ccc2c(C)c(C(=O)N3CCN(Cc4ccccn4)CC3)oc2c1C,2.22%
13,CCN(CC)S(=O)(=O)c1ccc(OC)c(NC(=O)c2ccc3c(c2)OCO3)c1,10.6%
14,COc1cc2nc(COc3ccc(C#N)cc3)n(CC#N)c(=O)c2cc1OC,-1.23%
15,Cc1ccc(Nc2nc(Cl)nc(N(C)C#N)n2)cc1,8.56%
16,O=C(NC(Cc1ccccc1)C(=O)O)c1ccc(S(=O)(=O)N2CCCCC2)cc1 (centres unmarked),22%
17,COc1ccc(CCNC(=O)Cc2ccc(Cl)cc2)cc1OC,16.9%
18,Cc1cccc(OCCCC(=O)NCC(=O)Nc2cccc(C)c2C)c1,12%
19,Cc1cc2ncn(C3CC(=O)N(C)C3=O)c2cc1C (centres unmarked),15.3%

row,Structure (SMILES),"hERG current change (%, negative = inhibition) at 1uM"
1,CCCC(=O)Nc1ccc2oc(=O)ccc2c1,7.53%
2,CC(C)(CO)NCc1c(OCc2ccc(Cl)cc2)ccc2ccccc12.Cl,-34.1%
3,CCCN1CCN(C(=O)c2nn(-c3ccc(OC)cc3)c(=O)c3c2c2ccccc2n3C)CC1,6.28%
4,C/C(=N\N=C(/N)c1nonc1N)c1ccc2c(c1)OCO2,17.1%
5,COC(=O)C1=NNCC12CC(=O)N(c1ccc(Br)cc1)C2=O (centres unmarked),8.71%
6,O=C(NCc1cccnc1)c1cccc2c1C(=O)N(C1CCCCC1)C2,-3.58%
7,COc1cccc(C(=O)NCCS(=O)(=O)NCCCc2ccccc2)c1,-1.29%
8,Cl.N=c1sccn1CC(=O)Nc1cccc(S(N)(=O)=O)c1,13.4%
9,Cc1ccn2c(C(=O)N/N=C/c3ccc(CNC(=O)C(=O)Nc4ccc(C)c(C)c4)o3)c(C)nc2c1,-3.81%
10,CC(C)C1C(=O)CC(c2ccccc2)NC1c1ccccc1 (centres unmarked),12.3%
11,Clc1ccc2nc(-c3ccc(Br)s3)cn2c1,7.35%
12,Cc1cc(C)cc(C(=O)NC(CC(N)=O)c2ccc(NC3CCCCC3)c([N+](=O)[O-])c2)c1 (centres unmarked),1.9%
13,CCC1(CC)C(=O)NC(=NCCc2c[nH]c3ccccc23)NC1=O,13.6%
14,O=C(CCCNC(=O)/C(=C/c1ccc(Br)cc1)NC(=O)c1ccccc1)OCc1ccccc1,-2.58%
15,COc1ccc(CCN(Cc2cc3cc(C)c(C)cc3nc2Cl)C(=O)C2CC2)cc1,17.8%
16,Cc1ccc(CSc2nsc(C)c2C#N)cc1,16.4%
17,Cn1c2ccccc2c2ncn(Cc3ccco3)c(=O)c21,14.4%
18,N#Cc1ccccc1S(=O)(=O)N1CCN(CC(=O)NC(=O)NC2CCCCC2)CC1,7.59%
